The full ranking holds about 33,000 sequences; the median of “E-score (-0.5 to 0.5)” is about -0.054, and the highest 2% start at about 0.39. This is one part of the list.
target: Ylr278c (UniProt Q05854); assay: PBM E-score (8-mer binding enrichment) (E-score (-0.5 to 0.5)); higher = stronger / more preferred TF binding; most listed sequences are background and not binding sites; details: protein concentration: 200 nM; construct: GST-DNA-binding domain
Summary of the method: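 The E-score, a modified Wilcoxon-Mann-Whitney statistic, was computed by the Universal PBM Analysis Suite for every ungapped eight-base word pooled with its reverse complement. Scans behind it were normalised with masliner after bound GST-tagged yeast transcription factors were detected with fluorescent anti-GST. The proteins, at about 100-200 nM, had been applied to universal all-10-mer Agilent arrays made double-stranded by primer extension.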

| Sequence | PBM E-score |
| --- | --- |
| GGAGGTTA | 0.101 |
| ACGGCCGC | 0.191 |
| GGAAGGGA | 0.0118 |
| AAACAACT | -0.11 |
| CGGTCAGC | 0.016 |
| AAATTAGC | 0.0491 |
| CACCTCCC | -0.129 |
| GCCGAGCA | 0.168 |
| GTATATCA | -0.148 |
| AAAGAGGA | -0.158 |
| CATTTGCC | -0.00499 |
| ATACTGTA | -0.0669 |
| GACGTCTA | -0.0686 |
| ACAACCGG | 0.312 |
| TTCTGAAA | -0.0593 |
| CGAGTACC | 0.074 |
| AGGCGCAC | 0.0855 |
| CACTTCAA | 0.034 |
| AATGATAC | -0.132 |
| CACTGATC | -0.21 |
| CGCCCTTA | 0.0182 |
| CCTGAAAC | -0.00792 |
| CTTTACCC | -0.132 |
| CATATTCA | -0.192 |
| AGGGTGAA | -0.114 |

| Sequence | PBM E-score |
| --- | --- |
| CGGCATGA | 0.223 |
| GGAGACCA | 0.14 |
| CTGCGTGC | 0.0295 |
| CCCTGCTC | -0.188 |
| CTCTAGGC | -0.096 |
| CCGGACGG | 0.396 |
| GGCGGACA | 0.365 |
| ACTCCCCG | 0.338 |
| AATTGCCG | 0.286 |
| GCCAGTTA | -0.0644 |
| AGTCGTAT | -0.22 |
| CGACCCTA | 0.0211 |
| CTTAAATA | -0.124 |
| GGTGACCA | -0.119 |
| GGCTTGGA | -0.259 |
| CCGATGCG | 0.361 |
| CGGTACGA | -0.0494 |
| ACCCATTA | -0.155 |
| GCGTATCC | -0.0386 |
| CAAGTGTG | -0.145 |
| AAGGGGCT | -0.103 |
| GTGCTTGA | -0.218 |
| CGAACACG | 0.052 |
| CCCACGCG | 0.0351 |
| CGAAGTCG | 0.068 |

| Sequence | PBM E-score |
| --- | --- |
| ACCATAGG | -0.247 |
| GAGTTAGA | 0.00623 |
| AATAAAAA | -0.0113 |
| GATGGTAA | -0.181 |
| GACAGAGA | -0.0753 |
| CGACGTCG | 0.035 |
| GATTATCA | -0.0144 |
| AGTTGGCG | 0.116 |
| AGGTAGCA | -0.197 |
| GGTAATAA | 0.137 |
| AGAGTCAA | -0.126 |
| AGCAATAT | -0.0716 |
| CTAATTAC | -0.0256 |
| CGAAGCCG | 0.299 |
| ACATGCTA | -0.25 |
| CATGGGAA | -0.00467 |
| ATGTACGG | 0.0545 |
| CTTGTGGA | -0.266 |
| CGCGTTTA | 0.125 |
| AAGGAGAC | -0.214 |
| ACTAAAGG | -0.26 |
| ATTCACAA | 0.0169 |
| CCCCTTCC | 0.00101 |
| CGCACGCG | 0.124 |
| GAATGGGC | 0.00577 |

| Sequence | PBM E-score |
| --- | --- |
| CAGAGCAC | -0.123 |
| GGGGGCAC | -0.138 |
| GATCTGGC | 0.0483 |
| ATCGGTGG | 0.13 |
| ATCCGATG | 0.323 |
| AGGGCCCA | 0.00775 |
| ACCCATCA | -0.176 |
| AACTGGCT | -0.199 |
| CGAAGGCC | 0.127 |
| AGAGCGGG | 0.0486 |
| AATAAATC | -0.0705 |
| CCTAATCC | 0.0242 |
| AAAAGGCG | -0.156 |
| GATAAGGC | -0.0603 |
| GAGTTGAA | 0.0762 |
| GTCCCCTA | -0.196 |
| CATACGAA | -0.0505 |
| CTTCCCGC | 0.148 |
| AGTGAACT | -0.0578 |
| ATACGTGG | -0.203 |
| GGTTTGAC | 0.0439 |
| CGTAGAAG | -0.039 |
| TAAATCCA | -0.185 |
| CTTCATTC | -0.0517 |
| ATATCTGG | -0.0167 |

| Sequence | PBM E-score |
| --- | --- |
| ACTACGAC | -0.0488 |
| CTCCGCAG | 0.418 |
| GCATATAA | -0.0828 |
| CTCGCTCA | -0.126 |
| CTGCCTTA | -0.132 |
| ATCGGATA | 0.393 |
| CACATTGC | -0.0898 |
| CACCCTAC | -0.222 |
| CTGGCGCC | -0.00499 |
| CGTGATCC | -0.0838 |
| CTGAGCTC | 0.0823 |
| CGGGGAGA | 0.238 |
| CCCTAAAG | -0.135 |
| TACCAGGA | -0.0496 |
| AACCTCAG | -0.0309 |
| AAGCAAGG | -0.0604 |
| ATGTAGCA | -0.0623 |
| TAAAGTCA | -0.151 |
| CAAAAGAC | -0.14 |
| ACTATATG | -0.0969 |
| TTAGTGAA | -0.106 |
| AGAATCGG | 0.24 |
| CAAGGCCC | 0.00531 |
| GAGGATGC | 0.0373 |
| GATGCCCA | 0.0254 |

| Sequence | PBM E-score |
| --- | --- |
| CGCAAAAG | -0.00356 |
| TATTGCAA | 0.171 |
| CGTACCTA | -0.132 |
| GGAAGCAC | 0.0988 |
| AGGGGAAT | 0.117 |
| CGACTCAC | 0.0265 |
| CATATCCC | 0.141 |
| CTAGAGAA | -0.0653 |
| CTTAGAGA | -0.14 |
| CCGCCAAA | 0.263 |
| AACTACAC | -0.0892 |
| CCACCCAG | -0.0325 |
| TACACAAA | 0.0722 |
| GCTCTTAA | -0.138 |
| GGGGTAGA | 0.0892 |
| CCTGTGAA | -0.144 |
| GATAGTCA | -0.0752 |
| GTATGGAA | -0.154 |
| AATAGCTA | -0.0483 |
| ATCTATAA | -0.18 |
| AAAGCATA | -0.0825 |
| GGGCTCCA | -0.118 |
| CATATTCC | 0.179 |
| CAGGTACA | -0.0635 |
| CCCGGGGC | 0.317 |

| Sequence | PBM E-score |
| --- | --- |
| ATGTACAC | -0.23 |
| GAACCATC | -0.00377 |
| CACGCGGA | 0.379 |
| CCCTGACG | 0.0697 |
| GCGGATAA | 0.314 |
| AACTCAGT | -0.15 |
| GACCAAAA | 0.0958 |
| CGGCTCAA | 0.0909 |
| TCACCTCA | -0.179 |
| TATTGTAA | -0.13 |
| GGATTCAC | 0.144 |
| ATTGGCTG | -0.194 |
| AGGCCTCC | -0.0758 |
| GCTAACCA | -0.145 |
| AGCCCTAG | -0.139 |
| ATGCTAAT | -0.104 |
| CATTAAAA | 0.14 |
| CGTGATGA | -0.315 |
| GAGCTTAC | 0.0501 |
| GGAGGCCC | 0.175 |
| CGCCGGGC | 0.378 |
| AAGTCGCT | -0.163 |

Reference: the supplement of paper PMC3334620
